In all, about 310,000 compounds went through this assay and about 2,200 (0.71%) showed an effect of 50% or more. The effect is printed as a negative number. Some of the results follow.

Chain of human ether-à-go-go-related gene (hERG) potassium channel (Q12809 whole entry, looked up): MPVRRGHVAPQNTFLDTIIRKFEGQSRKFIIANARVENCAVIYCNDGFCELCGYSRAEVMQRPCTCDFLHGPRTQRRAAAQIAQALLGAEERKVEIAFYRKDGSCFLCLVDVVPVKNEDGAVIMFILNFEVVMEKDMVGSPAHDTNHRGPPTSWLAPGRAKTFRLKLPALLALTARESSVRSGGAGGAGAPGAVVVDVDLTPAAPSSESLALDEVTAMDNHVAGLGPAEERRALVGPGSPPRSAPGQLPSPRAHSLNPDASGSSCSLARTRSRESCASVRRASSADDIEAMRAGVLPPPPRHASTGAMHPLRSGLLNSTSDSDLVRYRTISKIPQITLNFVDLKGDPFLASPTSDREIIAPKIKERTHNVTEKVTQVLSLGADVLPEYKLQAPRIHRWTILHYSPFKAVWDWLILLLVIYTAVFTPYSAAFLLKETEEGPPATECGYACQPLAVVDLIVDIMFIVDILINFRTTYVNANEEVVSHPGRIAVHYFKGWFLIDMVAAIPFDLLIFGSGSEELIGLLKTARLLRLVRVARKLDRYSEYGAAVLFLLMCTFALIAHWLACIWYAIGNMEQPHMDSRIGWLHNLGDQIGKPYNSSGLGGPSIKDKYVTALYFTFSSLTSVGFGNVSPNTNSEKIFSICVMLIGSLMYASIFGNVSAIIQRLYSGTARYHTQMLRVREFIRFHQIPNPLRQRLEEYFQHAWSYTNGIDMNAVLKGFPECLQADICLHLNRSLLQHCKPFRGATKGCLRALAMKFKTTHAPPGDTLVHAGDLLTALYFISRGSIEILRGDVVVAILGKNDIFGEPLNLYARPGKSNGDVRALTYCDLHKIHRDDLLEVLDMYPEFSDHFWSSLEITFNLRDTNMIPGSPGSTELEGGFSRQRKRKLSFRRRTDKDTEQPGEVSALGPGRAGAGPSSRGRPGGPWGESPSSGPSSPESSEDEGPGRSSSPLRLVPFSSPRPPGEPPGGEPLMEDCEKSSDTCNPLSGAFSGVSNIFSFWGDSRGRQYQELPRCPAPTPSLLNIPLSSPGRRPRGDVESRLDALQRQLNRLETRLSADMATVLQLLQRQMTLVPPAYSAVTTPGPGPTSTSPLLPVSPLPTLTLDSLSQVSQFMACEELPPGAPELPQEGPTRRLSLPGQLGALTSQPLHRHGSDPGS

The assay addresses human ether-à-go-go-related gene (hERG) potassium channel (human, UniProt Q12809). As to the kind of experiment: primary screen, population patch clamp on CHO cells stably expressing hERG.
Consider `CC(C)C(=O)N1CCC(n2nccc2NC(=O)CCOc2ccccc2)CC1`, for which the “hERG current change (%, negative = inhibition) at 1uM” value amounted to 0.685%.
Consider `CCCNS(=O)(=O)c1cccc(C(=O)OCc2cc(=O)oc3cc(OC)ccc23)c1`, for which the “hERG current change (%, negative = inhibition) at 1uM” value is 2.46%.
Under `CCNC(=S)NNC(=O)c1ccncc1` stands 11.2%; under `COc1cccc(CSc2nc(N)cc(N)n2)c1`, 10.5%; under `CC1CCCCC1NC(=O)CC1Oc2ccccc2NC1=O` (stereo not drawn), -0.373%.
On to `O=c1ccc2ccccc2o1`, for which the “hERG current change (%, negative = inhibition) at 1uM” value was found to be 18.3%.
Turning to `COc1ccc(C2CC(c3cccs3)=NN2C(=O)CSc2nc3ccccc3s2)cc1` (stereo not drawn), the “hERG current change (%, negative = inhibition) at 1uM” value is 10.6%.
For `CC(NC(=O)c1ccccc1Br)c1ccc2c(c1)CCCC2` (stereo not drawn), the “hERG current change (%, negative = inhibition) at 1uM” value is -12%.
As for `O=C(CSc1nnc(COc2cccc3ccccc23)o1)N1CCN(C(=O)c2ccco2)CC1`, the “hERG current change (%, negative = inhibition) at 1uM” value is recorded as -44.8%.
In the case of `Cc1c(C(C)NC(=O)c2cc(COc3cccc4cnccc34)on2)cnn1C` (stereo not drawn), the “hERG current change (%, negative = inhibition) at 1uM” value stood at 24.7%.
Under `COC(=O)/C(=C\C(=O)c1ccccc1)Nc1cccc(C(F)(F)F)c1` stands 6.48%; under `CC(=O)Nc1c2c(nn1-c1ccc(C)cc1)CSC2`, 14.5%.
For the molecule `CCOCCCNC(=O)C(=O)NCCCOCC`, the “hERG current change (%, negative = inhibition) at 1uM” value is given as 7.7%.
`CN(C)CCNC(=S)Nc1ccccc1C(C)(C)C`: the “hERG current change (%, negative = inhibition) at 1uM” value amounted to 10.1%.
Under `Cn1c(SCc2cccc(Br)c2)nc2c1c(=O)[nH]c(=O)n2C` stands 14.3%.
Take `Cc1ccc(NC(=O)N2CCCC2C(=O)Nc2ccc(-n3cnnn3)c(C)c2)cc1` (stereo not drawn): the “hERG current change (%, negative = inhibition) at 1uM” value is -1.23%.
Consider `COc1ccc(N2CCN(C(=O)CNC(=O)c3ccc4ccccc4c3)CC2)cc1`, for which the “hERG current change (%, negative = inhibition) at 1uM” value is on record as 9.7%.
Under `CC(C)c1ccc(OCC(=O)NC(=S)Nc2ccc3c4c(cccc24)CC3)cc1` stands -3.41%; under `Cc1oc2cc(OC(C)C(=O)O)ccc2c(=O)c1Oc1ccccc1` (stereo not drawn), 18.4%; under `O=C(NCC1CCCN(Cc2ccc3nonc3c2)C1)c1ccc(F)cc1` (stereo not drawn), -13.9%.
As to `Cc1cc(C)c(C#N)c(SCC(=O)N(C)C2CCCCC2)n1`, the “hERG current change (%, negative = inhibition) at 1uM” value was -4.26%.
Under `CC(C)Nc1nc(NC(C)C)nc(Oc2ccc(/C=N/O)cc2)n1` stands -5.96%; under `COc1ccc(CC(=O)n2c(CC#N)nc3ccccc32)cc1OC`, 13.4%.
`Cc1nn(-c2ccccc2)nc1CNC(=O)c1ncoc1-c1ccccc1`: the “hERG current change (%, negative = inhibition) at 1uM” value is on record as 8.91%.
Consider `CCOC(=O)c1c(N2C(=O)CC(Sc3ccccc3C(=O)O)C2=O)sc2c1CCCC2` (stereo not drawn), for which the “hERG current change (%, negative = inhibition) at 1uM” value amounted to 11%.
Turning to `CCOC(=O)CNC(=S)N(CCCN1CCN(C)CC1)Cc1cccs1`, the “hERG current change (%, negative = inhibition) at 1uM” value was found to be 1.64%.
As to `CCC(NC(=O)c1ccc2nc(Cc3ccc(OC)cc3)oc2c1)c1ccncc1` (stereo not drawn), the “hERG current change (%, negative = inhibition) at 1uM” value amounted to 4.78%.
Take `COc1ccc(C(=O)C2CCN(CC(=O)Nc3cc(C)cc(C)c3)CC2)cc1`: the “hERG current change (%, negative = inhibition) at 1uM” value is -28.1%.
Regarding `Cc1cccc[n+]1CC(=O)N1c2ccccc2Sc2ccccc21.[Cl-]`, the “hERG current change (%, negative = inhibition) at 1uM” value stood at 13%.
Turning to `Nc1nc(Nc2cccc(Cl)c2)n[nH]1`, the “hERG current change (%, negative = inhibition) at 1uM” value is recorded as 12.7%.
The result for `COC(=O)C(C)NS(=O)(=O)c1ccc(NC(C)=O)cc1` (stereo not drawn) reads 1.66%; that for `Cc1cc(Cl)ccc1NC(=O)C1CCCN1C(=O)c1cccs1` (stereo not drawn), 10.2%.
On to `COC(=O)Cn1c2ccc(Cl)cc2c2nc(C)sc21`, for which the “hERG current change (%, negative = inhibition) at 1uM” value came out at 13.9%.
As for `O=C(N/N=C/c1cc2c(cc1Br)OCO2)c1ccccn1`, the “hERG current change (%, negative = inhibition) at 1uM” value is 16.1%.
Consider `CNC(=O)N(O)C1N(/N=C/c2ccccc2F)C(=S)SC1(C)C` (stereo not drawn), for which the “hERG current change (%, negative = inhibition) at 1uM” value is 2.8%.
As to `CC(/C=N/NC(=O)c1cc(-c2ccc(C)s2)[nH]n1)=C\c1ccccc1`, the “hERG current change (%, negative = inhibition) at 1uM” value came to 6.31%.
Regarding `CCC(=NCCc1c[nH]c2ccccc12)c1c(O)n(-c2ccc(C)cc2)c(=O)[nH]c1=O`, the “hERG current change (%, negative = inhibition) at 1uM” value was 20.4%.
In the case of `CCCNC(=O)c1ccc2c(c1)ncn2-c1cc(C)cc(C)c1`, the “hERG current change (%, negative = inhibition) at 1uM” value is reported as -2.26%.
On to `COc1cc([N+](=O)[O-])ccc1NC(=O)C1C2C=CC(C2)C1C(=O)O` (stereo not drawn), for which the “hERG current change (%, negative = inhibition) at 1uM” value is listed as 12.1%.
For the molecule `COc1ccc2c(=O)c3c(=O)n(Cc4ccco4)c(-c4ccc(C)cc4)nc3oc2c1`, the “hERG current change (%, negative = inhibition) at 1uM” value was -9.46%.
Take `CCn1cc(/C=C2\SC(=O)N(CC(=O)Nc3ccc4c(c3)OCO4)C2=O)c2ccccc21`: the “hERG current change (%, negative = inhibition) at 1uM” value came out at 1.81%.
The result for `COc1cc(C(=O)ON=C2C(C)=CC(=O)C=C2C)cc(OC)c1OC` reads 4.38%; that for `CCc1ccc(N=C2NC(=O)CS2)cc1`, 12.6%; that for `Cn1c(N)c(C(=O)CSc2ccc3c(c2)OCCO3)c(=O)n(C)c1=O`, 11.4%.
Turning to `O=C1NC(=Nc2ccccc2)SC1Cc1ccccc1` (stereo not drawn), the “hERG current change (%, negative = inhibition) at 1uM” value is 10.2%.
`CCOC(=O)Cc1csc(NC(=O)c2c(-c3c(Cl)cccc3Cl)noc2C)n1`: the “hERG current change (%, negative = inhibition) at 1uM” value is 12%.
As to `COP(=O)(OC)C1(O)C(=O)Nc2ccc(Br)cc21` (stereo not drawn), the “hERG current change (%, negative = inhibition) at 1uM” value was 11.2%.
The result for `Cc1ccc2nc3n(c(=O)c2c1)-c1ccccc1C(=O)NC3Cc1ccccc1` (stereo not drawn) reads 12.8%; that for `Cc1nn(Cc2ccc(F)cc2)c(C)c1NC(=O)c1noc2c1CCCCC2`, 5.05%; that for `COC(=O)C(CCSC)NC(=O)c1cc2c(n(-c3ccccc3)c1=O)CCCC2=O` (stereo not drawn), 7.16%.
Under `COc1ccccc1NC(=O)C1CC(C(C)C)OC1=O` (stereo not drawn) stands 8.25%.
On to `Nc1[nH]c(=O)nc(Nc2ccccc2)c1N=O`, for which the “hERG current change (%, negative = inhibition) at 1uM” value was determined as 8.79%.
The result for `CCCCN1C(=O)C(O)=C(C(C)=O)C1c1ccc(OC)cc1OC` (stereo not drawn) reads 2.47%.
As to `CCC(C)NC(=O)CNS(=O)(=O)c1ccc(C)cc1` (stereo not drawn), the “hERG current change (%, negative = inhibition) at 1uM” value stood at 6.83%.
Turning to `O=C(COc1ncnc2cc([N+](=O)[O-])ccc12)NC(=O)NC1CCCCC1`, the “hERG current change (%, negative = inhibition) at 1uM” value is -9.64%.
As for `Cc1ccc(NC(=O)c2ccc(S(=O)(=O)NCC3CCCO3)cc2)cc1` (stereo not drawn), the “hERG current change (%, negative = inhibition) at 1uM” value was 5.7%.
Under `O=C(/C=C\Nc1ccc2c(c1)OCO2)c1ccc2c(c1)OCO2` stands 19.9%; under `Cc1ccc(N/C(N)=N/c2nc(C)cc(C)n2)cc1`, -24.7%; under `CCNS(=O)(=O)c1cc(Br)ccc1OC`, -4.75%.
As for `COc1ccc(CNC(=O)c2cc3c(=O)n4cccc(C)c4nc3n(CC3CCCO3)c2=N)cc1` (stereo not drawn), the “hERG current change (%, negative = inhibition) at 1uM” value is -83.8%.
With `CCOc1cc(/C=N/NC(=O)C(=O)N/N=C/c2ccc(O)c(OCC)c2)ccc1O`, the “hERG current change (%, negative = inhibition) at 1uM” value came to 21.8%.
The result for `COc1ccc(NC(=O)C2CC(=O)OC2c2ccccc2)cc1` (stereo not drawn) reads 5.21%.
On to `O=C1NC(=O)C(CCc2ccncc2)(Cc2ccc(OCc3ccccc3)cc2)C(=O)N1`, for which the “hERG current change (%, negative = inhibition) at 1uM” value is 10.6%.
With `Cc1[nH]c2ccccc2c1/C=C/c1nc2ccccc2c(=O)[nH]1`, the “hERG current change (%, negative = inhibition) at 1uM” value came out at 9.22%.
With `Cc1nn(C)c(=O)n1N(C)c1ncc(C(F)(F)F)cc1Cl`, the “hERG current change (%, negative = inhibition) at 1uM” value was 9.6%.
Take `COc1cc(OC)cc(C(=O)NCC(=O)N2CCCCC2)c1`: the “hERG current change (%, negative = inhibition) at 1uM” value stood at 12.5%.
As to `NC(=O)C1CCN(c2oc(-c3ccccc3F)nc2S(=O)(=O)c2ccc(Cl)cc2)CC1`, the “hERG current change (%, negative = inhibition) at 1uM” value was found to be 9.32%.
`Cc1c(N=Nc2c(O)[nH]c(=O)[nH]c2=O)c(=O)n(-c2ccccc2)n1C`: the “hERG current change (%, negative = inhibition) at 1uM” value was determined as 16.5%.
Consider `CS(=O)(=O)N1CCC(Oc2ccccc2C(=O)N2CCC[C@H]2CO)CC1`, for which the “hERG current change (%, negative = inhibition) at 1uM” value amounted to 18.3%.
In the case of `CCCCN(C)CCN1C(=O)C2C(C(=O)Nc3ccc(C)cc3)C3C=CC2(O3)C1C(=O)NC1CCCCC1` (stereo not drawn), the “hERG current change (%, negative = inhibition) at 1uM” value amounted to 15.1%.
Consider `COc1ccc(C(=O)NCCn2cc(SCC(=O)N3CCOCC3)c3ccccc32)cc1`, for which the “hERG current change (%, negative = inhibition) at 1uM” value amounted to 9.79%.
As to `COC(=O)[C@H](CCSC)NC(=O)c1cccnc1SC`, the “hERG current change (%, negative = inhibition) at 1uM” value was found to be 14.5%.
The result for `c1ccc2c(c1)CCc1c-2nc2ccccc2c1N1CCOCC1` reads -0.957%.
Turning to `C[C@@H]1O[C@@H](O[C@H]2C[C@@H](O)[C@]3(CO)[C@H]4[C@H](O)C[C@]5(C)[C@@H](C6=CC(=O)OC6)CC[C@]5(O)[C@@H]4CC[C@]3(O)C2)[C@H](O)[C@H](O)[C@H]1O`, the “hERG current change (%, negative = inhibition) at 1uM” value stood at 15.1%.
As to `CC(C)CCN1CCC(n2nccc2NC(=O)c2ccc3c(c2)OCO3)CC1`, the “hERG current change (%, negative = inhibition) at 1uM” value worked out at 15.3%.
The result for `CC1CCCCC1NC(=O)CNC(=S)N1CC2CC(C1)c1cccc(=O)n1C2` (stereo not drawn) reads 15%.
`COc1ccc(CNC(=O)C2CCCN(Cc3nc(-c4cccc(C)c4)oc3C)C2)cc1` (stereo not drawn): the “hERG current change (%, negative = inhibition) at 1uM” value is -19.7%.
On to `O=C(O)c1cccc(NS(=O)(=O)c2ccc(Cl)c(C(=O)O)c2)c1`, for which the “hERG current change (%, negative = inhibition) at 1uM” value came out at 21%.
Consider `Cc1cc(O)c2c(c1)C(=O)C13C(=C2O)C(=O)[C@H]2[C@@H](O)[C@@H]1[C@H]1[C@H](O)[C@@H]3C(=O)C3=C(O)c4c(O)cc(C)cc4C(=O)C312` (stereo partly drawn), for which the “hERG current change (%, negative = inhibition) at 1uM” value was determined as 14.5%.
Consider `CCN(CCN(C)C)C(=O)C1CCN(S(=O)(=O)c2c(C)noc2/C=C/c2ccccc2F)CC1`, for which the “hERG current change (%, negative = inhibition) at 1uM” value came to 13.5%.
Turning to `CN(Cc1ccccc1N1CCCC1)C(=O)c1cc2cc(Cl)ccc2o1`, the “hERG current change (%, negative = inhibition) at 1uM” value is reported as 7.6%.
The result for `CCCCC(=O)NS(=O)(=O)c1ccc(N=NN2CCOCC2)cc1` reads 16.2%; that for `Cc1ccc(-c2nnn(CC(=O)N(CC(=O)NC3CCCC3)c3ccc(F)cc3)n2)o1`, 11.7%.
For the molecule `COc1cc(CNCc2ccco2)ccc1OCc1ccccc1`, the “hERG current change (%, negative = inhibition) at 1uM” value worked out at 4.43%.
Take `COc1ccc(OC)c(NC(=O)CSc2nnc(C3CCCCC3)n2N)c1`: the “hERG current change (%, negative = inhibition) at 1uM” value is reported as -0.727%.
Consider `O=C(CNC(=O)c1ccccc1F)NCCc1ccc(Cl)cc1Cl`, for which the “hERG current change (%, negative = inhibition) at 1uM” value is listed as 7.52%.
Turning to `Cc1cc(C(=O)CN2C(=O)NC3(CCC(C)CC3)C2=O)c(C)n1C` (stereo not drawn), the “hERG current change (%, negative = inhibition) at 1uM” value was 4.8%.

The record behind these values is PMC4336329 (PLoS ONE, 2015).
